Experimental data as given in patent publication US12551573B2, “Compositions and methods for the targeting of PCSK9” (Scribe Therapeutics Inc., priority 2022, dated 2026).
Where a chain is given by its changes, count along the chain named. Read-outs that look alike come from different tables or passages of the source.

B1: DOMAIN_12769 (protein, listed as Macaca fascicularis)
chain: VKESVTFKDVAIDFTLEEWRLMDPTQRNLHKDVMLENYRNLVSLGLAVSKPDMISHLENGKGPWPKPATKNATRTKDISED
B2: DOMAIN_12508 (protein, listed as Gorilla sp.)
chain: KSMVTFEDVAVYFSQEEWELLDAAQRHLYHSVMLENLELVTSLGCWHGVEGEEAHPEQNVSVEVLQVRIPNADPSTKKANS
B3: DOMAIN_12818 (protein, listed as Macaca fascicularis)
chain: AQESVTFEDVAVNFTNREWQSLTYAQRHLYKHVMLENYGNMVSLGFPFPKPPLISHLERGVEPCVQDPQDRESLSCSYPVS
B4: DOMAIN_13068 (protein, listed as Ailuropoda melanoleuca)
chain: QAEVTFEDVAVLFSREEWGRLGPAQRGLYRDVMLETYRNLVSLGAGPAGPKPGVITQLERGDEPWVLDTQGAKGKERLRVS
B5: DOMAIN_12811 (protein, listed as Macaca fascicularis)
chain: CYQDSVTFDDVAVDFTQEEWTLLDPTQRSLYSDVMLENYKNLATVGGQIIKPSLISWLEQEESRTVRGGVLQGRKTQWRGT
B6: DOMAIN_12591 (protein, listed as Bos indicus)
chain: HSEGRLTFQDVAIDFTQEEWECLDPGQRKLYRDVMVENYRNLASLGLVSKVDLVTFLELLKDPRNIRRMKTTAIYPAVSPQ
B7: DOMAIN_13004 (protein, listed as Macaca fascicularis)
chain: PQGLVTFGDVAVDFSQEEWEWLNPNQRNLYRKVMLENYKNLASLGLCVSKPDVISSLEQGKEPWTVKRKMTRAWCPDLKIV
B8: DOMAIN_13089 (protein, listed as Sapajus apella)
chain: PQKLVTFEDVAVYFTQAEWDGLSPAQRILYRDVMLENYGNVASLGFPLLKPAVISQLEGGGELGAPSPLAAGTGLHGLRTV
B9: DOMAIN_12777 (protein, listed as Phascolarctos cinereus)
chain: WQESLTFKDVAVDFTQEEWGLLDHSQKRLYKEVMLENSQNLLSLGIPPLREDLISHLEEGEASWILDRKGPRKSCPDAETR
B10: DOMAIN_12544 (protein, listed as Gorilla sp.)
chain: AQESITLEDVAVDFTWEEWQLLGAAQKDLYRDVMLENYSNLVAVGYQASKPDALFKLEQGEQPWTIEDGIHSGACSDIWKV
B11: DOMAIN_12698 (protein, listed as Phascolarctos cinereus)
chain: GEEAVTFRDVALDFTWEEWGCLSAAQRELYKDVMLENYRNLVSLAGLPGPKPGLISWLEGEEEPHPWDSLVHAARSTSLSK
B12: DOMAIN_12576 (protein, listed as Gorilla sp.)
chain: FQEPVTFEDVAVYFTQNEWASLHPTQRALYREVMLENYANVTSLSAFPFPKPDLIFQLEQGEAAWGPDPWTLAGGEALRGM
B13: DOMAIN_12517 (protein, listed as Lynx canadensis)
chain: LLQESLTLEDVAVDFTQEEWRLLAPAQKDLYRDVMLENFRNLVSVGYVASMPAALSRLERGGRWMTEDETRRGICPEIKKD
B14: DOMAIN_12829 (protein, listed as Phascolarctos cinereus)
chain: VGHPVTFRDVAVDFSLEEWRCLSPAQRALYRDVMLENYENLVSVGLPVSKPTVISLLEKGEAPWMPQAGAPRGPCPDYLSW
B15: DOMAIN_12511 (protein, listed as Gorilla sp.)
chain: MALVTFRDVAIDFSQKEWECLDTTQRKLYRDVMLENYNNLVSLGYSGSKPDVITLLEQGKEPCVAARDVTGRQCPGLLSRH
B16: DOMAIN_12815 (protein, listed as Macaca fascicularis)
chain: FQGSVSFEDVTVGFSQEEWQHLDPSQRALYRDVMLENYSNLVSVGYCVHKPEVIFRLEQGEEPWRLEEEFPSQSFPEVWTA
B17: DOMAIN_17432 (protein, listed as Otolemur garnettii)
chain: LQELLTFKDVSVEFSVDEWACLDPAQQTLYRDVMLENYRHLVFLGLTPSKPHLITCLEQSKEPWKVKAYQTVVKHPAVSNH
B18: DOMAIN_12734 (protein)
chain: PQKLVTFEDVAVYFTPTEWDGLSPAQRALYRDVMLENYGNVASLGFPILKPAVISQLEGGGELGIPSLLAAGVGSDPPGLW
modifications: Phyllostomus discolor
B19: DOMAIN_13029 (protein, listed as Myotis lucifugus)
chain: B18 chain with L4S, I48L, L49I, S55L, I65G, L68P, G72E, V73T, S75T
B20: DOMAIN_12646 (protein, listed as Myotis lucifugus)
chain: DAVTFPDVAIDFSRDEWECLNLAQRTLYRKVMLENYRTLVSVGLCVSKPDVISLLEQGEEPWVTDGEMAGGLCPHSECVWM
B21: DOMAIN_13062 (protein, listed as Ursus maritimus)
chain: AKGLLTFGDVAIEFSQEEWECLSHTQRELYRDVILENYGHLLFLGVIVSKPDLVSLLEQRKEPWGEKRNKTRIHVGKNPFG
B22: DOMAIN_12801 (protein, listed as Sapajus apella)
chain: VHGSVTFRDVAIDFSQEEWECLQPAQKTLYRDVMLENYSHLISLGSSISKPDVITLLEQEKEPWMVRRKETNRWYPDLESK
B23: DOMAIN_12902 (protein, listed as Macaca fascicularis)
chain: RPESVTFEDVAVYFSENEWIGLGPAQRALYRDVMLENYGAVASLAFPFPKPALISQLERGEAPWCSVPWGALDGEDPRSIS
B24: DOMAIN_12598 (protein)
chain: EPVTFEDVAVYFSQNQWASLDSAQRALYREVMLENYANVASLVSPFPRPDLISQLERGEAPWDPNPWEAEDLRGICPGGER
modifications: Muntiacus muntjak
B25: DOMAIN_12849 (protein)
chain: APVTFGDLAIYFSQEEWEWLSPIQKDLYEDVMLENYQNLVSLGLCFRRPNVITLLERGKAPWMVDPVKRRRGLDLGSKGET
modifications: Muntiacus muntjak
B26: DOMAIN_12712 (protein)
chain: FQASVVFEDVAVKFTPEEWALLDRGQRKLYRDVMLETCRNLSSVEKQKFHSNGDLTRMQEGLLRSPLVESVCERIEGDQCG
modifications: Puma concolor
B27: DOMAIN_12704 (protein, listed as Myotis lucifugus)
chain: AQEPLTFHDVAVDFTWEEWQLLDPEQKDLYRDVMLETYSHLVSVGYEASKPDILSKLDHGEAPWTVAGEIHCGTHSEIWKR
B28: DOMAIN_18137 (protein, listed as Monodelphis domestica)
chain: AQVLVTFQDVAVDFTQEEWRLLDPGQKELYKEVMLENVQNVLSLGLPVPREDWISHFDQGRAPWMLEGEGPSNSCLGRERR
B29: DOMAIN_12985 (protein, listed as Phascolarctos cinereus)
chain: LQGSVTFQDVAVDFSWEEWGHLGPAQKELYREVMLENYGNLVCLGLAVSSPDVVCQLERGEGPWMPEGDVPGSSCAGWETK
B30: DOMAIN_12630 (protein, listed as Macaca fascicularis)
chain: MVSFEDVAVLLSQEEWDCLIPAQRGLYRDVMLETYGNLVSLGLQASKPDVISRLEQGDKPWTPHILRTQISWSWRHKRECY
B31: DOMAIN_12941 (protein)
chain: CWGLLSFKDISMDFTWEEWQLLDSAQKYLYRDVILENYRNLVSVGYHGTKPDLIFKLEQGEEPWIRNAKISRPRCSEGWKE
modifications: Phyllostomus discolor
B32: DOMAIN_12831 (protein, listed as Phascolarctos cinereus)
chain: AQELVTFQDVAVDFTEEEWGLLDHSQKELYKEVMLENAQNLLSLGLPVTREDLISFFQKGEAPWILEPKGPWNFCPDAVTR
B33: DOMAIN_18216 (protein, listed as Physeter macrocephalus)
chain: RVVFEDVAVYFSQEEWGLLDEAQRHLYHAVMTENFALVTSLGCWHGAQYEEAPSEQSVSVGMSEVGTPKPDPSTKKAQPYE
B34: DOMAIN_12686 (protein, listed as Phascolarctos cinereus)
chain: AQELVTFQDVAVDFTQEEWGLLDHPQKELYKEVMLENARNALSLGLPVPREGLISHFGQREAPWMMELEDPRTSYPVSQKL
B35: DOMAIN_13022 (protein, listed as Phascolarctos cinereus)
chain: PLELVTFKDVAVDFSWEEWGHLEPSQKELYREVMLENYRNLVCLGLAISKPDVIFQLEQGEAPWMPEREGPKCRCADWKTR
B36: DOMAIN_12728 (protein, listed as Lynx canadensis)
chain: AHRSLMFSDVSIVFSQEEWEYLDLEQRDLYRDVMLENYSNLVSLGCFISKPDVISLLEQGKEPWKVVRKGRRRYADLETRY
B37: DOMAIN_12599 (protein)
chain: AQVCVTFDDVAVTFTQEEWGHLDPAQRTLYQEVMLETCGLLMSLGCPVPRPELIYQLEHGQELWTVKRDLSGSTCPVDKGK
modifications: Muntiacus muntjak

Test system: HBEGF locus
Assay type: cell-based, human
[1] = repressor domain in dXR, repression of the HBEGF gene, abundance of domain in library after vs before diphtheria toxin selection
[2] = high-throughput screen of dXR repression of the HBEGF gene, change in abundance of each domain in the library before and after diphtheria toxin selection

| Molecule | Log2 (fold change) [1] | Log2 (fold change) [2] |
| --- | --- | --- |
| B1 | 2.0555 |  |
| B2 | 3.0173 |  |
| B3 | 3.6211 |  |
| B4 | 3.6132 |  |
| B5 | 2.4278 |  |
| B6 | 3.4169 |  |
| B7 | 3.2216 |  |
| B8 | 2.8761 |  |
| B9 | 2.1778 |  |
| B10 | 3.306 |  |
| B11 | 2.8029 |  |
| B12 | 3.04 |  |
| B13 | 2.6983 |  |
| B14 | 3.3994 |  |
| B15 | 3.0694 |  |
| B16 | 2.7296 |  |
| B17 |  | 3.11 |
| B18 | 3.5207 |  |
| B19 | 3.1708 |  |

| Molecule | Log2 (fold change) [1] | Log2 (fold change) [2] |
| --- | --- | --- |
| B20 | 3.487 |  |
| B21 | 2.9752 |  |
| B22 | 2.0238 |  |
| B23 | 3.3489 |  |
| B24 | 3.3709 |  |
| B25 | 4.1042 |  |
| B26 | 2.1195 |  |
| B27 | 2.9127 |  |
| B28 |  | 3.292 |
| B29 | 3.7331 |  |
| B30 | 3.6424 |  |
| B31 | 2.4012 |  |
| B32 | 2.9845 |  |
| B33 |  | 3.0602 |
| B34 | 2.76 |  |
| B35 | 3.0468 |  |
| B36 | 3.1999 |  |
| B37 | 2.2098 |  |
